From PubChem BioAssay AID1347073 (National Center for Advancing Translational Sciences (NCATS), 2019)
Among all 45,000 compounds or so, about 200 (0.44%) were called active. Roughly 7% stayed inconclusive and do not appear here. Calls follow the shape of the dose curve; as a rule, active = well fitted activation curve with a large enough effect; inconclusive = small, poorly fitted or top-dose-only effect; inactive = no such curve, though single readings can be large or run the other way. This is one part of the list.

Experiment: qHTS of TDP-43 Inhibitors: NCGC Sytravon Library Screen; also: 0% is about no effect; nearly all actives have a fitted effect of over 55% in size
Conditions: yeast TDP-43 toxicity rescue, BacTiter-Glo growth, 24 h; series mostly up to 46.1 µM; growth rescue (activation): at the top concentration
Procedure, shortened: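 TDP-43-expressing yeast, pregrown in raffinose, seeded at OD600 0.02 in galactose medium with compound for 24 hr at 30 deg C. Growth read by BacTiter-Glo luminescence, so rescue of toxicity appears as activation.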

SMILES	growth rescue (activation)
COC(=O)c1ccc(C(=O)OC)c(NC(=O)CSc2nc(-c3ccco3)cc(C(F)(F)F)n2)c1	inactive: -3.86%
COC(=O)c1[nH]c2cc(C)ccc2c1NC(=O)CN1CCc2cc(OC)c(OC)cc2C1	inactive: -14.9%
O=C1CCCN1CCC(=O)N1CCCC(Nc2ccc(F)c(F)c2)C1 (configuration not stated)	inactive: 13.9%
COc1ccc(CC(=O)O/N=C(\N)c2ccccc2)cc1OC	inactive: 27.1%
Cc1ccc(-c2csc(C3=C(O)CN(NC(=O)c4ccco4)C3=N)n2)cc1	inactive: 1.95%
COc1ccc(C(=O)Nc2ccccc2C)cc1S(=O)(=O)N1CCOCC1	inactive: -8.82%
O=C(COc1cccnc1[N+](=O)[O-])c1ccc(Cl)s1	inactive: 18%
Cc1cc(C)c2c(N)c(C(=O)c3ccc(Cl)cc3Cl)sc2n1	inactive: 32.7%
CS(=O)(=O)N1CCC(C(=O)NCc2ccc(F)cc2)CC1	inactive: -0.312%
O=C(NCC1COc2ccccc2O1)c1cccs1 (configuration not stated)	inactive: 9.98%
Cc1c(NC(=O)c2cc(-c3ccc(F)cc3)nc3ccccc23)c(=O)n(-c2ccccc2)n1C	inactive: 15.5%
COc1ccccc1OCC(=O)NCc1nc(-c2ccccc2)no1	inactive: 21%
C=CCSc1nsc(NC(=O)Nc2ccc(F)cc2)n1	inactive: -70.2%
CCN(C(=O)CSc1n[nH]c(-c2cc(Cl)ccc2OC)n1)C1CCS(=O)(=O)C1 (configuration not stated)	inactive: 26.9%
CC(C)(C)SCCNC(=O)/C=C/c1ccc(F)cc1	inactive: 27.8%
CCc1ccc2[nH]c3nc(SCc4nnc(-c5ccccc5)o4)nnc3c2c1	inactive: 30%
Cc1cc([N+](=O)[O-])nn1CCCC(=O)Nc1c(C)n(C)n(-c2ccccc2)c1=O	inactive: 4.65%
O=C(O)c1ccc(CSc2nnnn2-c2ccc(F)cc2)cc1	inactive: 9.85%
Cc1ccc(NS(=O)(=O)c2ccc3c(c2)C(=O)c2ccccc2C3=O)c(C)c1	inactive: -5.36%
CC(C)(C)c1ccc(C(=O)NCC(=O)NCC(C)(C)N2CCOCC2)cc1	inactive: -5.23%
CN(C(=O)c1ccc(S(=O)(=O)N2CCCC2)cc1)C1CCCCC1	inactive: -1.55%
CC1SC2(NC1=O)C1CC3CC(C1)CC2C3 (configuration not stated)	inactive: 28.7%
COc1cccc(-c2n[nH]c3c2CCC3)c1	inactive: 17.8%
COc1cccc(C(C(=O)NC(C)(C)C)N(CC(C)C)C(=O)CCC(=O)Nc2cc(C)on2)c1OC (configuration not stated)	inactive: -1.83%
C/C(=N/NC(=O)COc1cc(C)ccc1C(C)C)C(=O)O	inactive: 16.7%
C=CCn1c(-c2cccc(OC)c2)n[nH]c1=S	inactive: 11.6%

SMILES	growth rescue (activation)
N/C(=N\OC(=O)CCCOc1ccccc1)c1cccc([N+](=O)[O-])c1	inactive: 9.74%
COc1ccc(-n2nc(C(=O)Nc3nc4ccc(OC)cc4s3)c3ccccc3c2=O)cc1	inactive: 1%
CCOC(=O)c1c(NC(=O)C[n+]2ccc(Cc3ccccc3)cc2)sc(C)c1C	inactive: -7.29%
COC(=O)C1=C(C)N(CCc2c[nH]c3ccccc23)C(=O)/C1=C\N(C)C	inactive: -20.3%
Cc1cc(Cl)ccc1OCC(=O)NC(=S)Nc1ccccc1N1CCOCC1	inactive: -8.81%
Cc1ccc(C(=O)Nc2ccc(N3CCCC3)cc2)c(C)c1	inactive: 3.39%
COc1ccc(S(=O)(=O)NC(=O)C2(C)CCN2C(=O)Cc2ccccc2)cc1OC (configuration not stated)	inactive: -8.41%
COc1cccc(/C=C2\Sc3ccc(C(=O)NCc4cccnc4)cc3N(C)C2=O)c1	inactive: -0.153%
COC(=O)C(Cc1c[nH]c2ccccc12)NC(=O)C1CC1 (configuration not stated)	inactive: 1.89%
Cc1nn(C)c(C)c1/C=C(/C(=O)C(C)(C)C)n1cncn1	inactive: -3.45%
CC(C)(C)c1ccc(-c2n[nH]c(=S)n2/N=C/c2ccncc2)cc1	inactive: 22%
CCN(CC(=O)NCc1ccc(F)cc1)CC(=O)NC1CCCC1	inactive: -6.18%
NC(=O)c1ccccc1NC(=O)CC12CC3CC(CC(Br)(C3)C1)C2	inactive: 1.49%
CN(C(=O)CSc1nc2ccc(Br)cc2c(=O)n1Cc1ccco1)C1CCS(=O)(=O)C1 (configuration not stated)	inactive: 7.42%
N#CCCN(C1CCCCC1)S(=O)(=O)c1cccc2nsnc12	inactive: -7.35%
Cn1c(=O)c(=O)n(C)c2cc(S(=O)(=O)N3CCCC3C(=O)NCc3cccs3)ccc21 (configuration not stated)	inactive: 4.97%
Cc1cc(C)n2nc(SCC(=O)NC(=O)c3ccccc3)nc2n1	inactive: 12.9%
O=c1[nH]c(C(Cl)(Cl)Cl)nc2ccc3ccccc3c12	inactive: -3.92%
CCOC(=O)N1CCN(C(=O)c2ccc(OC)cc2)CC1	inactive: -4.57%
COc1ccc(N(C(=O)C(C)C)S(=O)(=O)c2ccc3c(c2)n(C)c(=O)n3C)cc1	inactive: 26.5%
COC(=O)c1ccccc1NC1=C/C(=N\S(=O)(=O)c2ccc(C(=O)O)cc2)c2ccccc2C1=O	inactive: 4.93%
CCCC1=C(C(=O)OCC)C(c2ccc(OC)c(C)c2OC)C(C#N)=C(N)O1 (configuration not stated)	inactive: 2.08%
O=C(CN(C(=O)CNC(=O)c1ccco1)c1ccc2c(c1)OCCO2)NC1CCCCC1	inactive: 2.37%
O=C(COC(=O)c1cccc(OC(F)F)c1)NC1CCCC1	inactive: 11%
COc1ccc(NC(=O)COC(=O)c2ccc3c(c2)OCO3)c(OC)c1	inactive: -2.88%
COc1ccc(C2CC(c3ccc4ccccc4c3OC(C)=O)=NN2C(C)=O)cc1 (configuration not stated)	inactive: 2.15%
